Reference: patent US9234216B2, “Variant CBH I polypeptides” (BP Corporation North America Inc., priority 2011, dated 2016)

Test: Saccharification of pretreated bagasse by CBHI variants in a cocktail with CBHII and EG
Format: biochemical
Details: Table 6; for % improvement over WT @ 48 hr: 5% w/v pretreated bagasse, 35° C., pH5.2, CBHI 4 mg/g cellulose; for Dose Reduction: method not described
Procedure: CBHI variants shown in Tables 1 and 5 were assayed under the following conditions: • 5% w/v pretreated bagasse (62.07% cellulose) • 35° C., 300 rpm shaking with 2 BBs per r×n • pH5.2 • 1 mM Sodium Azide • 5 ml total volume • Enzyme Dosing Overview:
• Time point: T=0, 48 hours • Time point (for Point Mutant Recombinants): T=0, 72 hours • % improvement over wt=(% conversion of variant−% conversion of wt)/ • % conversion of wt Results of these assays are shown in Tables 2 and 6. • CBHI variants shown in Table 3 were assayed under the following conditions: […]

Molecule | % improvement over WT @ 48 hr [%] | Dose Reduction [X]
SEQ ID 107, 108: BD29555 CBH I entry site variant: Y31A, T32Y, S72Y, T73Y, T77D (protein) MSALNSFNMYKSALILGSLLATAGAQQIGTAYAETHPSLSWSTCKSGGSCTTNSGAITLDANWRWVHGVNTYYNCYDGNTWNTAICDTDASCAQDCALDGADYSGTYGITTSGNSLRLNFVTGSNVGSRTYLMADNTHYQIFDLLNQEFTFTVDVSHLPCGLNGALYFVTMDADGGVSKYPNNKAGAQYGVGYCDSQCPRDLKFIAGQANVEGWTPSSNNANTGLGNHGACCAELDIWEANSISEALTPHPCDTPGLSVCTTDACGGTYSSDRYAGTCDPDGCDFNPYRLGVTDFYGSGKTVDTTKPITVVTQFVTDDGTSTGTLSEIRRYYVQNGVVIPQPSSKISGVSGNVINSDFCDAEISTFGETASFSKHGGLAKMGAGMEAGMVLVMSLWDDYSVNMLWLDSTYPTNATGTPGAARGSCPTTSGDPKTVESQSGSSYVTFSDIRVGPFNSTFSGGSSTGGSSTTTASGTTTTKASSTSTSSTSTGTGVAAHWGQCGGQGWTGPTTCASGTTCTVVNPYYSQCL | 23.2 | 0.75
SEQ ID 109, 110: BD29555 CBH I entry site variant: Y31Q, T32Q, S72Y, T73Y, T77D (protein) MSALNSFNMYKSALILGSLLATAGAQQIGTQQAETHPSLSWSTCKSGGSCTTNSGAITLDANWRWVHGVNTYYNCYDGNTWNTAICDTDASCAQDCALDGADYSGTYGITTSGNSLRLNFVTGSNVGSRTYLMADNTHYQIFDLLNQEFTFTVDVSHLPCGLNGALYFVTMDADGGVSKYPNNKAGAQYGVGYCDSQCPRDLKFIAGQANVEGWTPSSNNANTGLGNHGACCAELDIWEANSISEALTPHPCDTPGLSVCTTDACGGTYSSDRYAGTCDPDGCDFNPYRLGVTDFYGSGKTVDTTKPITVVTQFVTDDGTSTGTLSEIRRYYVQNGVVIPQPSSKISGVSGNVINSDFCDAEISTFGETASFSKHGGLAKMGAGMEAGMVLVMSLWDDYSVNMLWLDSTYPTNATGTPGAARGSCPTTSGDPKTVESQSGSSYVTFSDIRVGPFNSTFSGGSSTGGSSTTTASGTTTTKASSTSTSSTSTGTGVAAHWGQCGGQGWTGPTTCASGTTCTVVNPYYSQCL | 11.9 | 
SEQ ID 111, 112: BD29555 CBH I entry site variant: T32W, T73W, T77D (protein) MSALNSFNMYKSALILGSLLATAGAQQIGTYWAETHPSLSWSTCKSGGSCTTNSGAITLDANWRWVHGVNTSWNCYDGNTWNTAICDTDASCAQDCALDGADYSGTYGITTSGNSLRLNFVTGSNVGSRTYLMADNTHYQIFDLLNQEFTFTVDVSHLPCGLNGALYFVTMDADGGVSKYPNNKAGAQYGVGYCDSQCPRDLKFIAGQANVEGWTPSSNNANTGLGNHGACCAELDIWEANSISEALTPHPCDTPGLSVCTTDACGGTYSSDRYAGTCDPDGCDFNPYRLGVTDFYGSGKTVDTTKPITVVTQFVTDDGTSTGTLSEIRRYYVQNGVVIPQPSSKISGVSGNVINSDFCDAEISTFGETASFSKHGGLAKMGAGMEAGMVLVMSLWDDYSVNMLWLDSTYPTNATGTPGAARGSCPTTSGDPKTVESQSGSSYVTFSDIRVGPFNSTFSGGSSTGGSSTTTASGTTTTKASSTSTSSTSTGTGVAAHWGQCGGQGWTGPTTCASGTTCTVVNPYYSQCL | 9.5 | 
SEQ ID 113, 114: BD29555 CBH I entry site variant: Y31A, T32Q, T73Y, T77D (protein) MSALNSFNMYKSALILGSLLATAGAQQIGTAQAETHPSLSWSTCKSGGSCTTNSGAITLDANWRWVHGVNTSYNCYDGNTWNTAICDTDASCAQDCALDGADYSGTYGITTSGNSLRLNFVTGSNVGSRTYLMADNTHYQIFDLLNQEFTFTVDVSHLPCGLNGALYFVTMDADGGVSKYPNNKAGAQYGVGYCDSQCPRDLKFIAGQANVEGWTPSSNNANTGLGNHGACCAELDIWEANSISEALTPHPCDTPGLSVCTTDACGGTYSSDRYAGTCDPDGCDFNPYRLGVTDFYGSGKTVDTTKPITVVTQFVTDDGTSTGTLSEIRRYYVQNGVVIPQPSSKISGVSGNVINSDFCDAEISTFGETASFSKHGGLAKMGAGMEAGMVLVMSLWDDYSVNMLWLDSTYPTNATGTPGAARGSCPTTSGDPKTVESQSGSSYVTFSDIRVGPFNSTFSGGSSTGGSSTTTASGTTTTKASSTSTSSTSTGTGVAAHWGQCGGQGWTGPTTCASGTTCTVVNPYYSQCL | 22.2 | 0.8
SEQ ID 115, 116: BD29555 CBH I entry site variant: S72W, T73Q, F120-VTGSNVG-S128 → F120-VQQGPYSKNVG-S132 (protein) MSALNSFNMYKSALILGSLLATAGAQQIGTYTAETHPSLSWSTCKSGGSCTTNSGAITLDANWRWVHGVNTWQNCYTGNTWNTAICDTDASCAQDCALDGADYSGTYGITTSGNSLRLNFVQQGPYSKNVGSRTYLMADNTHYQIFDLLNQEFTFTVDVSHLPCGLNGALYFVTMDADGGVSKYPNNKAGAQYGVGYCDSQCPRDLKFIAGQANVEGWTPSSNNANTGLGNHGACCAELDIWEANSISEALTPHPCDTPGLSVCTTDACGGTYSSDRYAGTCDPDGCDFNPYRLGVTDFYGSGKTVDTTKPITVVTQFVTDDGTSTGTLSEIRRYYVQNGVVIPQPSSKISGVSGNVINSDFCDAEISTFGETASFSKHGGLAKMGAGMEAGMVLVMSLWDDYSVNMLWLDSTYPTNATGTPGAARGSCPTTSGDPKTVESQSGSSYVTFSDIRVGPFNSTFSGGSSTGGSSTTTASGTTTTKASSTSTSSTSTGTGVAAHWGQCGGQGWTGPTTCASGTTCTVVNPYYSQCL | 18.3 | 0.75
SEQ ID 105, 106: BD29555 CBH I entry site variant: Y31Q, T32Q, S72Y, T77D, F120-VTGSNVG-S128 → F120-VTQSAQKNVG-A131 (protein) MSALNSFNMYKSALILGSLLATAGAQQIGTQQAETHPSLSWSTCKSGGSCTTNSGAITLDANWRWVHGVNTYTNCYDGNTWNTAICDTDASCAQDCALDGADYSGTYGITTSGNSLRLNFVTQSAQKNVGARTYLMADNTHYQIFDLLNQEFTFTVDVSHLPCGLNGALYFVTMDADGGVSKYPNNKAGAQYGVGYCDSQCPRDLKFIAGQANVEGWTPSSNNANTGLGNHGACCAELDIWEANSISEALTPHPCDTPGLSVCTTDACGGTYSSDRYAGTCDPDGCDFNPYRLGVTDFYGSGKTVDTTKPITVVTQFVTDDGTSTGTLSEIRRYYVQNGVVIPQPSSKISGVSGNVINSDFCDAEISTFGETASFSKHGGLAKMGAGMEAGMVLVMSLWDDYSVNMLWLDSTYPTNATGTPGAARGSCPTTSGDPKTVESQSGSSYVTFSDIRVGPFNSTFSGGSSTGGSSTTTASGTTTTKASSTSTSSTSTGTGVAAHWGQCGGQGWTGPTTCASGTTCTVVNPYYSQCL | 11.8 | 0.5
